Test results: the supplement of paper PMC3334620
Over roughly 33,000 sequences, “E-score (-0.5 to 0.5)” has its median near -0.053; the highest 2% begin near 0.37. This is one part of the list.

molecular target: Hap1 (UniProt P0CE41); experiment: PBM E-score (8-mer binding enrichment) (E-score (-0.5 to 0.5)); higher = stronger / more preferred TF binding; most listed sequences are background and not binding sites; settings: protein concentration: 200 nM; construct: GST-DNA-binding domain
How it was run: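 Universal all-10-mer Agilent arrays, double-stranded by primer extension on fresh or once-stripped slides, were probed with about 100-200 nM GST-tagged yeast transcription factors made by PURExpress. Fluorescent anti-GST detected bound protein, and masliner normalised the scans. E-scores from the Universal PBM Analysis Suite were given to each ungapped eight-base word pooled with its reverse complement.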

Chain of UniProt P0CE41 (P0CE41 whole entry, the tested form may be a part): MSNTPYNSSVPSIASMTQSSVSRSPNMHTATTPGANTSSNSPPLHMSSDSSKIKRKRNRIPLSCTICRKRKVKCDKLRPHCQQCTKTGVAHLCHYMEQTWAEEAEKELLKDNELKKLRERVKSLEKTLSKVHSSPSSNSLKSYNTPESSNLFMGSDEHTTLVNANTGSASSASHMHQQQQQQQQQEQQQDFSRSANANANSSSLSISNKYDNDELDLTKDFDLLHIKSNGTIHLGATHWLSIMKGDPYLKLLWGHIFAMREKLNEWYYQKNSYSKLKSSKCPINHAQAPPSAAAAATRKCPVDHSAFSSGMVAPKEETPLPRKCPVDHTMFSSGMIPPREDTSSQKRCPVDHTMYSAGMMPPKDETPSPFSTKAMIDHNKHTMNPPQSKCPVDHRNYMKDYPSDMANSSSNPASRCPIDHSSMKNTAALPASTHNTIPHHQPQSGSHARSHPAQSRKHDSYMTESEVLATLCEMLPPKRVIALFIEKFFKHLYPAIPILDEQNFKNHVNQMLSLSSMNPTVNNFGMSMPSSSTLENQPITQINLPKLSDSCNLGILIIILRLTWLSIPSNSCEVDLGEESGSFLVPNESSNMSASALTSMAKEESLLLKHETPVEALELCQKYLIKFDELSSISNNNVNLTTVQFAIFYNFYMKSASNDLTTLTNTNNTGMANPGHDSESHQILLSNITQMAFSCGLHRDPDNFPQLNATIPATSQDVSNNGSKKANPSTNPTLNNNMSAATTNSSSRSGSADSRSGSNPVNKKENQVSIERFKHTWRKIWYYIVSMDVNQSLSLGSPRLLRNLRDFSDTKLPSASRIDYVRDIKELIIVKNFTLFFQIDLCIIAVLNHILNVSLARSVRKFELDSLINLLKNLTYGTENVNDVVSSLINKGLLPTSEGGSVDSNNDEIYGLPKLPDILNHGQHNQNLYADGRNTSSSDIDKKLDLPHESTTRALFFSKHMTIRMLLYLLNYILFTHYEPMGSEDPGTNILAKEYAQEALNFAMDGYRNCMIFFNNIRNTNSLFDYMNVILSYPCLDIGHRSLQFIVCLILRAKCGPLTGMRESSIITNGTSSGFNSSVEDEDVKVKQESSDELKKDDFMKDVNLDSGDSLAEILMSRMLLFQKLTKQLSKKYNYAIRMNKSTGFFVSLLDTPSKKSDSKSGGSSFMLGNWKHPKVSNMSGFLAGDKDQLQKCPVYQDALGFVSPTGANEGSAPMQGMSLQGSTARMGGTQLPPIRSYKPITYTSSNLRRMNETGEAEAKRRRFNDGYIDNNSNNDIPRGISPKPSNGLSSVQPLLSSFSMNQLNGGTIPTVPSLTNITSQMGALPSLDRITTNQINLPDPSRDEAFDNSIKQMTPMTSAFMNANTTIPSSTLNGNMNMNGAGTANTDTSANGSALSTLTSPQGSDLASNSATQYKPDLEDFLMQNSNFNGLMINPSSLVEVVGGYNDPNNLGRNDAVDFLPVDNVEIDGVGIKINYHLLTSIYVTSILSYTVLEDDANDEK

Sequence	PBM E-score
ATCAGGAT	0.00952
CTTCAAAG	-0.142
ATGTACAG	-0.0525
CAATTCGA	-0.29
GCTTATCC	0.163
CGACGTAG	-0.0488
ACTAAAGA	-0.168
CAGTTTTA	-0.17
ACCCTAGA	-0.219
GGACCGCA	0.186
ACTCAACA	-0.159
CGTGAGGA	-0.0956
AGACGCAG	-0.0687
CTTACCGC	0.233
CTACCAAC	-0.274
AGTTACCC	0.121
GCCAATGA	-0.242
GACGCTGC	-0.138
GAACGTTC	-0.0378
GAGCGTAC	-0.188
AGCGATTA	0.217
ATTGCCAC	-0.195
AGCCGAAG	0.227
ATCCATGA	-0.134

Sequence	PBM E-score
CAGGACCA	-0.0254
CCGTGGCC	0.198
CTGAAAAG	0.0193
CTGAGCAA	-0.266
CCTTGCAC	-0.128
CAGATCTC	-0.106
AGGCTCCC	-0.0528
ACCAAAAA	0.0683
AGCACACC	-0.0307
AACCAAAC	-0.118
ATTTAGGC	-0.129
GACGTCTC	-0.14
GAGTGAAA	-0.0897
TCCAACCA	-0.125
ATCTAGGG	-0.305
ATCGTGCC	0.0652
CGTAGTTC	0.016
GGTTAAAC	0.145
GCCGAGGC	0.341
ATTTGGGC	-0.144
CGAGCACG	0.153
AGCGAGAT	0.15
ATCGCTTC	-0.0291
CTTAAGGC	0.00611

Sequence	PBM E-score
GCAAACCA	-0.133
CCTACAGA	-0.294
ATCCTAGG	-0.143
ACCCCGGT	0.366
CTGGAGCC	0.00891
AATGGGGT	0.018
AACCAAGG	-0.259
GCCTCAAA	0.0701
AAAGGCGT	-0.14
CTGCAGGC	-0.137
GCTAAACA	-0.131
CTATGCCA	-0.308
GGTTATAA	0.244
CAACCACG	-0.156
CGAGGATA	0.0703
ATCGTGGA	-0.0642
GAAGCGAC	-0.0556
AAGCCTAT	-0.101
CATGCTCA	-0.154
AGCCTTCG	-0.0886
CATGCCTC	-0.0568
GTAGCTAA	0.045
CAGGCAGA	-0.18
CTAGCGGC	0.0447

Sequence	PBM E-score
GCCGCGTA	0.0919
AGTAGGCC	6e-05
AACTGGTC	0.0858
AGAGGGTG	-0.122
ACCAGCTA	-0.145
ATTATCCC	0.0666
ATGCGCAA	0.00433
CGTGAAAG	-0.077
ACTGCCCA	-0.0432
CTAAGTGC	-0.0465
CCATAGGG	-0.122
AGATGATC	-0.00964
GTCTGCGA	-0.259
AGTCGTCG	-0.132
TGCAAGCA	-0.091
CGTCATTC	0.0302
CATTTCAG	-0.268
GCCGCAGA	0.184
GCTCGCCA	-0.0148
ACTGGTAA	-0.127
GCTCCCAA	-0.226
AAACGTGA	-0.249
